Assay results reported in the supplement of paper PMC10037445.
Whole data set: some 2,900 compounds, median “NF-kB SEAP reporter activity, fold change vs agonist alone” near 0.99, cut for the highest 2% near 2.6. The list shows a part of the results.

Tests used:
[1] = test system: RAW-Dual; assay: NF-kB SEAP reporter activity, fold change vs agonist alone; higher = enhanced NF-kB activity; conditions: library stock concentration (final ~1000-fold dilution): 10 mM
Method in brief: (§1)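 Supernatant from RAW-Dual macrophages was read after 20 hours for IRF by QuantiLuc luminescence and for NF-κB by QuantiBlue absorbance at 620 nm. The cells (50,000 cells/well in DMEM, 384-well plates, 37 °C, 5% CO2) had received 50 nL of library stock by pin tool and, 1 h later, a PRR agonist. Reporter activity is expressed relative to agonist-alone wells as fold change, and wells were flagged cytotoxic if IncuCyte confluency was under 70% of agonist controls in both mask sets.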

[2] = test system: RAW-Dual; assay: NF-kB SEAP reporter activity, fold change vs agonist alone; cytotoxicity flag (confluency mask): cytotoxic (confluency <70% of control); higher = enhanced NF-kB activity
Method in brief: as §1

[3] = test system: RAW-Dual; assay: NF-kB SEAP reporter activity, fold change vs agonist alone; cytotoxicity flag (confluency mask): not cytotoxic; higher = enhanced NF-kB activity
Method in brief: as §1

[4] = cytotoxicity flag (confluency mask): cytotoxic (confluency <70% of control), agonist: MPLA (TLR4) […]
[5] = agonist: ODN 1826 (TLR9) 0.5 ug/mL
[6] = agonist: Pam3CSK4 (TLR2/1) 0.1 ug/mL
[7] = agonist: Pam2CSK4 (TLR2/6) 0.1 ug/mL
[8] = cytotoxicity flag (confluency mask): not cytotoxic, agonist: Imiquimod (TLR7) […]
[9] = cytotoxicity flag (confluency mask): not cytotoxic, agonist: MPLA (TLR4) […]

With `Cc1sc2c(c1C)C(c1ccc(Cl)cc1)=NC(CC(=O)NCCCCNC(=O)COc1cccc3c1C(=O)N(C1CCC(=O)NC1=O)C3=O)c1nnc(C)n1-2` (stereo not given) the “NF-kB SEAP reporter activity” value [1, 4] was 2.59.
`Cc1sc2c(c1C)C(c1ccc(Cl)cc1)=NC(CC(=O)NCCCCNC(=O)COc1cccc3c1C(=O)N(C1CCC(=O)NC1=O)C3=O)c1nnc(C)n1-2` (stereo not given) (library stock concentration (final ~1000-fold dilution): 10 mM) was tested, and the “NF-kB SEAP reporter activity” value ([2]; agonist: LPS (TLR4) 0.1 ug/mL) was 7.56, the “NF-kB SEAP reporter activity” value [2, 5] was 3.05 and the “NF-kB SEAP reporter activity” value [2, 6] was 3.03.
With `CCCCCCCCCCCC(CC1OC(=O)C1CCCCCC)OC(=O)C(CC(C)C)NC=O` (stereo not given) (library stock concentration (final ~1000-fold dilution): 10 mM) the “NF-kB SEAP reporter activity” value ([3]; agonist: LPS (TLR4) 0.1 ug/mL) was 1.07, the “NF-kB SEAP reporter activity” value [3, 5] was 1.02 and the “NF-kB SEAP reporter activity” value [3, 7] was 0.959. For the same compound, the “NF-kB SEAP reporter activity” value [3, 6] was 0.978.
With `CCCCCCCCCCCC(CC1OC(=O)C1CCCCCC)OC(=O)C(CC(C)C)NC=O` (stereo not given) the “NF-kB SEAP reporter activity” value [1, 8] was 0.823 and the “NF-kB SEAP reporter activity” value [1, 9] was 0.902.
`CN(C)CCOC(=O)COc1ccc(Cl)cc1.Cl` was tested, and the “NF-kB SEAP reporter activity” value [1, 8] was 1.09 and the “NF-kB SEAP reporter activity” value [1, 9] was 1.09.
For `CN(C)CCOC(=O)COc1ccc(Cl)cc1.Cl` (library stock concentration (final ~1000-fold dilution): 10 mM), the “NF-kB SEAP reporter activity” value ([3]; agonist: LPS (TLR4) 0.1 ug/mL) was 1.27, the “NF-kB SEAP reporter activity” value [3, 5] was 1.08 and the “NF-kB SEAP reporter activity” value [3, 7] was 1.24. For the same compound, the “NF-kB SEAP reporter activity” value [3, 6] was 1.
`COc1cc(-c2oc3cc(O)cc(O)c3c(=O)c2OC2OC(CO)C(O)C(O)C2OC2OC(C)C(O)C(O)C2O)ccc1O` (stereo not given) was tested, and the “NF-kB SEAP reporter activity” value [1, 8] was 0.928 and the “NF-kB SEAP reporter activity” value [1, 9] was 1.05.
`COc1cc(-c2oc3cc(O)cc(O)c3c(=O)c2OC2OC(CO)C(O)C(O)C2OC2OC(C)C(O)C(O)C2O)ccc1O` (stereo not given) (library stock concentration (final ~1000-fold dilution): 10 mM) was tested, and the “NF-kB SEAP reporter activity” value ([3]; agonist: LPS (TLR4) 0.1 ug/mL) was 1.2, the “NF-kB SEAP reporter activity” value [3, 5] was 0.987 and the “NF-kB SEAP reporter activity” value [3, 7] was 1.01. The “NF-kB SEAP reporter activity” value [3, 6] was 0.949.
With `CCN1CCN(Cc2ccc(-c3cc4c(NC(C)c5ccccc5)ncnc4[nH]3)cc2)CC1` (stereo not given) the “NF-kB SEAP reporter activity” value [1, 8] was 1.59 and the “NF-kB SEAP reporter activity” value [1, 9] was 0.93.
In the case of `CCN1CCN(Cc2ccc(-c3cc4c(NC(C)c5ccccc5)ncnc4[nH]3)cc2)CC1` (stereo not given) (library stock concentration (final ~1000-fold dilution): 10 mM), the “NF-kB SEAP reporter activity” value ([3]; agonist: LPS (TLR4) 0.1 ug/mL) is reported as 0.832, the “NF-kB SEAP reporter activity” value [3, 5] is reported as 0.215 and the “NF-kB SEAP reporter activity” value [3, 7] is reported as 1.02. For the same compound, the “NF-kB SEAP reporter activity” value [3, 6] was 1.01.
With `CN(CCNCc1cn(Cc2ccc(Cl)cc2)nn1)CCNc1ccnc2cc(Cl)ccc12.O=C(O)C(F)(F)F` (library stock concentration (final ~1000-fold dilution): 10 mM) the “NF-kB SEAP reporter activity” value ([2]; agonist: LPS (TLR4) 0.1 ug/mL) was 2.67, the “NF-kB SEAP reporter activity” value [2, 5] was 0.269 and the “NF-kB SEAP reporter activity” value [2, 7] was 1.18. For the same compound, the “NF-kB SEAP reporter activity” value [2, 6] was 1.87.
For `CN(CCNCc1cn(Cc2ccc(Cl)cc2)nn1)CCNc1ccnc2cc(Cl)ccc12.O=C(O)C(F)(F)F`, the “NF-kB SEAP reporter activity” value ([1]; cytotoxicity flag (confluency mask): cytotoxic (confluency <70% of control), agonist: Imiquimod (TLR7) […]) was 1.52 and the “NF-kB SEAP reporter activity” value [1, 4] was 2.19.
`CC(=O)Oc1cc2c(s1)CCN(C(C(=O)C1CC1)c1ccccc1F)C2` (stereo not given) was tested, and the “NF-kB SEAP reporter activity” value [1, 8] was 1.82 and the “NF-kB SEAP reporter activity” value [1, 9] was 1.75.
For `CC(=O)Oc1cc2c(s1)CCN(C(C(=O)C1CC1)c1ccccc1F)C2` (stereo not given) (library stock concentration (final ~1000-fold dilution): 10 mM), the “NF-kB SEAP reporter activity” value ([3]; agonist: LPS (TLR4) 0.1 ug/mL) was 1, the “NF-kB SEAP reporter activity” value [3, 5] was 1.21 and the “NF-kB SEAP reporter activity” value [3, 7] was 0.789. The “NF-kB SEAP reporter activity” value [3, 6] was 0.717.
For `COc1cc2c(OC3OC(CO)C4OC(C)(C)OC4C3O)c3c(c(-c4ccc5c(c4)OCO5)c2cc1OC)C(=O)OC3` (stereo not given) (library stock concentration (final ~1000-fold dilution): 10 mM), the “NF-kB SEAP reporter activity” value ([3]; agonist: LPS (TLR4) 0.1 ug/mL) was 2.9, the “NF-kB SEAP reporter activity” value [3, 5] was 0.644 and the “NF-kB SEAP reporter activity” value [3, 7] was 1.95. For the same compound, the “NF-kB SEAP reporter activity” value [3, 6] was 3.92.
With `COc1cc2c(OC3OC(CO)C4OC(C)(C)OC4C3O)c3c(c(-c4ccc5c(c4)OCO5)c2cc1OC)C(=O)OC3` (stereo not given) the “NF-kB SEAP reporter activity” value [1, 8] was 0.364 and the “NF-kB SEAP reporter activity” value [1, 9] was 2.28.
In the case of `CC(C)C(=O)Nc1ccc([N+](=O)[O-])c(C(F)(F)F)c1` (library stock concentration (final ~1000-fold dilution): 10 mM), the “NF-kB SEAP reporter activity” value ([3]; agonist: LPS (TLR4) 0.1 ug/mL) is reported as 1.38, the “NF-kB SEAP reporter activity” value [3, 5] is reported as 1.18 and the “NF-kB SEAP reporter activity” value [3, 7] is reported as 1.01. For the same compound, the “NF-kB SEAP reporter activity” value [3, 6] was 1.6.
